Data published in PubChem BioAssay AID624296 (National Center for Advancing Translational Sciences (NCATS), 2012).
Among all 350,000 compounds or so, about 9,900 (2.8%) were called active. Inconclusive means that the source gave no clear call. Such entries were picked first, then a sample of the others. The call rests on the fitted dose curve; in most records, active means well fitted activation curve with a large enough effect; inconclusive means small, poorly fitted or top-dose-only effect; inactive means no such curve, though single readings can be large or run the other way. No potency is given beside an inconclusive call; the fits are too rough.

Experiment: A quantitative high throughput screen for small molecules that induce DNA re-replication in MCF 10a normal breast cells. Further: nearly all actives have a fitted effect of over 50% in size. On activity, positive = re-replication: % of control where 0% means no effect.
Details: MCF 10A DNA re-replication, Hoechst nuclear intensity, 48 h; activity, positive = re-replication: at 46.1 µM (top of the series)
Potency means the concentration at half of the fitted maximal effect; tags describe the fitted curve by direction and shape.

Structure (SMILES) | Potency | activity, positive = re-replication
O=C(N/N=C/c1ccc(Br)cc1)c1ccccc1-n1cccc1 | inconclusive [activator, partial curve, poor fit] | –
CCCCOn1c(C)c(C(=O)OCC)c2c3nonc3ccc21 | inconclusive [activator, partial curve, poor fit] | –
O=C1/C(=C/c2ccccc2Cl)SC(=S)N1CCCC(=O)N(CCO)c1ccccc1 | inconclusive [activator, single point] | –
Oc1ccc(C[C@H]2CNC(=S)N2CC2CCCN2C[C@H](Cc2ccc(O)cc2)N2C[C@H](Cc3ccccc3)N(CC3CCCCCC3)C2=S)cc1 (some centres undefined) | inconclusive [activator, single point] | –
CC1(C(=O)NNC(=O)C2CCCCC2)CC1(Cl)Cl (centres undefined) | inconclusive [activator, single point] | –
O=C(CSc1ncn[nH]1)c1ccco1 | inconclusive [activator, full curve, poor fit] | –
CCc1[nH]nc(C(=O)NC2CCCc3c2cnn3-c2cc(C)cc(C)c2)c1C (centres undefined) | – | inactive: -17.8%
Cc1ccc(C(=O)N2CCN(c3ccc(NC(=S)NC(=O)Cc4ccccc4)cc3)CC2)cc1 | inconclusive [activator, single point] | –
C/C=C1\COC(C(=O)NCCN2CCCC2)(C(F)(F)F)C=C1C=C1CCCCC1 (centres undefined) | active: 6.51 µM | –
C/C=C/c1ccc(OCC(=O)OCC(=O)Nc2c(C)nn(-c3ccccc3)c2C)c(OC)c1 | – | inactive: 0.529%
O=C(c1ccc2nc(-c3ccco3)c(-c3ccco3)nc2c1)N1CCN(c2ccccc2)CC1 | active: 16.4 µM | –
COc1ccc(-c2csc(Nc3cc(C)ccn3)n2)cc1OC | inconclusive [activator, partial curve, poor fit] | –
Cc1ccsc1-c1nc(CN(C)C(C2CC2)C2CC2)c(C)o1 | – | inactive: -7.24%
Cc1cc(C)nc(NS(=O)(=O)c2ccc(NS(=O)(=O)c3ccsc3)cc2)n1 | – | inactive: 2.8%
O=S(=O)(c1ccc(Cl)cc1)N1CCN(c2ccccn2)CC1 | inconclusive [activator, single point] | –
O=C(CCCN1C(=O)/C(=C/c2ccccc2Cl)SC1=S)NNC(=O)c1ccccc1 | inconclusive [activator, partial curve, poor fit] | –
Cc1cccc(-c2nnc(SCc3ccc(C#N)cc3)n2Cc2ccco2)c1 | inconclusive [activator, partial curve, poor fit] | –
O=C(c1ccc(-c2ccc([N+](=O)[O-])cc2)o1)N1CCCCCCC1 | active: 11.6 µM | –
COc1cc(NC(=O)c2ccc(Cl)cc2)c(Cl)cc1NC(=O)c1cccnc1 | – | inactive: 0.788%
CC(C)(C)OC(=O)N1CCCC(C(=O)Nc2ccc(C(=O)N3CCCC3)cc2)C1 (centres undefined) | – | inactive: -2.71%
CCNc1nc2c(c(=O)n(C)c(=O)n2C)n1CCCc1ccccc1 | inconclusive [activator, single point] | –
COc1cc2ccccc2cc1C(=O)Nc1ccncc1 | inconclusive [activator, single point] | –
O=C(NCCC1=CCCCC1)c1cccc(S(=O)(=O)N2CCCCC2)c1 | inconclusive [activator, single point] | –

Structure (SMILES) | Potency | activity, positive = re-replication
Cc1[nH]nc2oc(=O)c(CCO)c(C)c12 | inconclusive [activator, partial curve, poor fit] | –
Cc1no[n+]([O-])c1COc1ccc(/C=N/n2nnnc2N)cc1 | inconclusive [activator, partial curve, poor fit] | –
COc1ccc(OC)c(N=c2oc3cc(O)ccc3cc2C(N)=O)c1 | active: 16.4 µM | –
CC(C)Cc1ccc(C(C)C(=O)Nc2ncccn2)cc1 (centres undefined) | – | inactive: 16.9%
COc1ccc(NC(=O)CSc2nc3ccc(OC)cc3[nH]2)cc1 | – | inactive: -2.67%
Cc1ccc(S(=O)(=O)N(Cc2ccc(Cl)cc2)c2ccccc2C(=O)NCc2ccco2)cc1 | inconclusive [activator, partial curve, poor fit] | –
Clc1ccc(C2=NCCn3nc4ccccc4c32)cc1 | inconclusive [activator, single point] | –
Cc1ccc(CN(C)C(=O)C2CCC(=O)N(C3CCCCCC3)C2)cc1 (centres undefined) | inconclusive [activator, single point] | –
COc1cccc(/C=C/C(=O)c2ccc[nH]2)c1 | inconclusive [activator, single point] | –
C/C(=N\N=C(/N)SC1CC(=O)N(c2ccccc2)C1=O)c1cccs1 (centres undefined) | active: 2.31 µM | –
COc1cc(/C=C(\NC(=O)c2ccccc2)C(=O)NC(C(=O)O)c2ccccc2)cc(OC)c1OC (centres undefined) | inconclusive [activator, full curve] | –
CCCCNc1c(-c2ccc(OC)c(Sc3ccc(OC)cc3)c2)nc2ccccn12 | inconclusive [activator, full curve, poor fit] | –
CCOC(=O)C(CC)n1cnc2c(oc3ccccc32)c1=O (centres undefined) | inconclusive [activator, single point] | –
CC(=O)OC1CC(c2cc(C(C)(C)C)c(O)c(C(C)(C)C)c2)=NO1 (centres undefined) | inconclusive [activator, single point] | –
Nc1nncn1C(=O)c1ccccc1Cl | inconclusive [activator, full curve, poor fit] | –
Cc1cc(OCc2cc(C(=O)N(C)Cc3nonc3C)no2)cc(C)c1Cl | inconclusive [activator, single point] | –
CC1CCc2c(sc(NC(=O)c3cccs3)c2C(=O)O)C1 (centres undefined) | inconclusive [activator, full curve, poor fit] | –
Cc1cc(=O)[nH]c2c(C)cc(S(=O)(=O)N3CCOCC3)cc12 | – | inactive: 11.5%
Cc1ccc(-c2nc(P(=O)(c3ccccc3)c3ccccc3)c(N3CCOCC3)o2)cc1 | inconclusive [activator, single point] | –
COC(=O)CCCNC(=O)c1ccc(OS(=O)(=O)c2cc([N+](=O)[O-])ccc2C)cc1 | inconclusive [activator, single point] | –
COc1ccc(C(=O)NC(=S)Nc2cccc3cc(O)ccc23)cc1OC | inconclusive [activator, partial curve, poor fit] | –
COc1nc(OC)nc(N2CCC(C(=O)NCc3cccs3)CC2)n1 | – | inactive: -1.53%
O=C(NC(=S)Nc1cc(Cl)ccc1O)c1cccc(Br)c1 | – | inactive: 18.8%

Structure (SMILES) | Potency | activity, positive = re-replication
Cc1cccc(NC(=O)c2ccc(OCc3c(C)noc3C)cc2)c1C | – | inactive: 14.5%
Cc1ccc(NC(=O)CN(C)C(=O)c2cc(-c3ccccc3)nn2-c2ccccc2)cc1 | inconclusive [activator, single point] | –
CCOC(=O)Nc1nc(C)c(C(=O)c2ccc(Cl)cc2)s1 | inconclusive [activator, partial curve, poor fit] | –
Cc1ccc(C(=O)Nc2sc3c(c2C(=O)O)CCCCC3)o1 | inconclusive [activator, partial curve, poor fit] | –
Cc1ccc(C)c(N2CCN(S(=O)(=O)c3ccc4[nH]c(=O)c(=O)[nH]c4c3)CC2)c1 | inconclusive [activator, single point] | –
Cc1ccc(S(=O)(=O)N2CCN(C(=O)Cc3ccsc3)CC2)c(C)c1 | – | inactive: 12.8%
CC(C)CN(C(=O)CSc1ccc2c(c1)OCCO2)c1c(N)n(CC(C)C)c(=O)[nH]c1=O | – | inactive: 2.85%
COc1ccc(COC(=O)C2=C(C)NC(=O)NC2c2cc(Br)c(O)c(OC)c2)cc1 (centres undefined) | inconclusive [activator, full curve] | –
CCOc1cccc(-n2nnnc2-c2ccc(OC)cc2)c1 | active: 6.51 µM | –
COc1ccccc1/C=N/n1c(N)c(C(=O)NC2CCCCC2)c2nc3ccccc3nc21 | active: 10.3 µM | –
Cc1ccc(C(=O)N/N=C\c2ccccn2)cn1 | – | inactive: 0.344%
Cn1c(SCC(=O)Nc2ccc(Cl)cn2)nnc1C1CC1 | – | inactive: 3.92%
O=C(O)c1ccc(Oc2nc3ccccc3s2)cc1 | – | inactive: 20.5%
Cc1ccccc1CS(=O)(=O)c1cnc2ccccc2n1 | active: 18.4 µM | –
O=C(NNc1nc(-c2ccccc2)c2cc(Br)ccc2n1)c1ccc(S(=O)(=O)N2CCCCC2)cc1 | – | inactive: -0.41%
CCCCn1c(SCC(=O)NC(=O)NCc2ccco2)nc2cc(S(N)(=O)=O)ccc21 | inconclusive [activator, partial curve, poor fit] | –
O=C(N/N=C(\c1ccccc1)c1ccccn1)c1ccccc1Cl | inconclusive [activator, full curve, poor fit] | –
Cc1cccc(C2=NN(c3ccc(Br)cc3)[C@@H](C(=O)N3CCOC3=O)[C@@H]2c2ccc(F)cc2)c1 | inconclusive [activator, partial curve, poor fit] | –
Cc1cccc(N2CCN(C(=O)c3csc4ccccc34)CC2C)c1 (centres undefined) | inconclusive [activator, single point] | –
Cc1cccc(COCC(Cc2ccccc2)N2CCN(C(=O)c3cc(Cl)cc(Cl)c3)CCC2=O)c1 (centres undefined) | active: 23.1 µM | –
Clc1ccc(Cn2ccc(-c3ccc4c(c3)OCO4)n2)cc1Cl | inconclusive [activator, single point] | –
CCCCCc1nnc(NC(=O)c2cccc(S(=O)(=O)N3CCOCC3)c2)s1 | – | inactive: 17.8%
CCCc1[nH]nc2c1C(c1ccc(OC)cc1OC)C(C#N)=C(N)O2 (centres undefined) | inconclusive [activator, single point] | –
